Assay [1] has as its target Mast/stem cell growth factor receptor Kit (Homo sapiens) (UniProt P10721). Particulars: at 1 µM.
Assay [2] deals with Mast/stem cell growth factor receptor Kit (Homo sapiens), P10721 [D816V]. Particulars: at 0.1 µM.
Assay [3] shares this test system. Particulars: at 1 µM.
In assay [4] the test system is Mast/stem cell growth factor receptor Kit (Homo sapiens), P10721 [T670I]. Particulars: at 0.1 µM.
For assay [5] the test system is unchanged. Particulars: at 1 µM.
For assay [6], the system named is Mast/stem cell growth factor receptor Kit (Homo sapiens), P10721 [V560G]. As to conditions: at 0.1 µM.
Assay [7] has the same test system. Particulars: at 1 µM.
The target of assay [8] is Tyrosine-protein kinase Lck (Homo sapiens) (UniProt P06239). As to conditions: at 0.1 µM.
Assay [9] has the same target. Particulars: at 1 µM.
Assay [10] has as its target Leukocyte tyrosine kinase receptor (Homo sapiens) (UniProt P29376). Particulars: at 0.1 µM.

Each structure is given as a SMILES string. For some of these results: Most of the strong results are listed elsewhere, so they are rarer here than in the full data. The entries are a selection whose mix differs from that of the whole data set.

UniProt P06239, sequence (P06239 whole entry, looked up): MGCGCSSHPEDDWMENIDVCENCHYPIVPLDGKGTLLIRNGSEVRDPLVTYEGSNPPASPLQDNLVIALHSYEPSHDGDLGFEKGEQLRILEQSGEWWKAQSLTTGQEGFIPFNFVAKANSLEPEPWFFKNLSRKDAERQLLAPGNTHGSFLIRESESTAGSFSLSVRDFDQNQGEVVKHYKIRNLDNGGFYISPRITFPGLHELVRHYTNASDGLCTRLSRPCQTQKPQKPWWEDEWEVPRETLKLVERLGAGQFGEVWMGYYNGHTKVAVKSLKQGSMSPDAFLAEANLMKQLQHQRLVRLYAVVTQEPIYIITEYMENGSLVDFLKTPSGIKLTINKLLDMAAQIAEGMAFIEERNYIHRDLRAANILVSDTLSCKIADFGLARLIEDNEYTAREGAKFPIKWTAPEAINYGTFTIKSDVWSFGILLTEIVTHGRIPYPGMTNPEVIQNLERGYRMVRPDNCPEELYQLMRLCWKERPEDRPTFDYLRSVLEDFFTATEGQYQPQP
UniProt P10721, sequence (P10721 whole entry): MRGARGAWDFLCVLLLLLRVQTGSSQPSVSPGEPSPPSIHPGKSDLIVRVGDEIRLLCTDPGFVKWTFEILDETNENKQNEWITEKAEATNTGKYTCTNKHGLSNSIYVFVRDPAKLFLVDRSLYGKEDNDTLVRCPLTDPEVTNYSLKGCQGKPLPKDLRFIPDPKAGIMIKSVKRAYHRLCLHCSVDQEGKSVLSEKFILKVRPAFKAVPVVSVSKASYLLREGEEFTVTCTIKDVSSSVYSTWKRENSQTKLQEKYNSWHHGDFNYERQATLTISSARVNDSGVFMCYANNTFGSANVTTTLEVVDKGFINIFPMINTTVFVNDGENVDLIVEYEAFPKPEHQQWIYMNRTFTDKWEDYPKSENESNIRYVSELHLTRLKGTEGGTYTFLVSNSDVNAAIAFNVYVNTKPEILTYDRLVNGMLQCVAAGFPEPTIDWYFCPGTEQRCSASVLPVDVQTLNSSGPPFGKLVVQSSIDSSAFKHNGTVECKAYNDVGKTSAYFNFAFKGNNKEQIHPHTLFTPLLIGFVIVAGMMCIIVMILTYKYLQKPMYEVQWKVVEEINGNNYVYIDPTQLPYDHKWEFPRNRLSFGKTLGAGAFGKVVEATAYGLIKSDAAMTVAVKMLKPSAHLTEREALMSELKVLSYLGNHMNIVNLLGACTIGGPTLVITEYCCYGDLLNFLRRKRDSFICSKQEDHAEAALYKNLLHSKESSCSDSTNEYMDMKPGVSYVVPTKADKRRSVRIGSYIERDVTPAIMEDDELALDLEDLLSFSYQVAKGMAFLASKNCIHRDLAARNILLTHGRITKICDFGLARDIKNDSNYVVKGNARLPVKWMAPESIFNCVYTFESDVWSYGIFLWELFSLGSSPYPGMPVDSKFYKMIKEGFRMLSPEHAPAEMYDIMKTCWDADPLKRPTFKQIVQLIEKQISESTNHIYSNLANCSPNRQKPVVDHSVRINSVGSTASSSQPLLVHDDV
UniProt P29376, sequence (P29376 whole entry): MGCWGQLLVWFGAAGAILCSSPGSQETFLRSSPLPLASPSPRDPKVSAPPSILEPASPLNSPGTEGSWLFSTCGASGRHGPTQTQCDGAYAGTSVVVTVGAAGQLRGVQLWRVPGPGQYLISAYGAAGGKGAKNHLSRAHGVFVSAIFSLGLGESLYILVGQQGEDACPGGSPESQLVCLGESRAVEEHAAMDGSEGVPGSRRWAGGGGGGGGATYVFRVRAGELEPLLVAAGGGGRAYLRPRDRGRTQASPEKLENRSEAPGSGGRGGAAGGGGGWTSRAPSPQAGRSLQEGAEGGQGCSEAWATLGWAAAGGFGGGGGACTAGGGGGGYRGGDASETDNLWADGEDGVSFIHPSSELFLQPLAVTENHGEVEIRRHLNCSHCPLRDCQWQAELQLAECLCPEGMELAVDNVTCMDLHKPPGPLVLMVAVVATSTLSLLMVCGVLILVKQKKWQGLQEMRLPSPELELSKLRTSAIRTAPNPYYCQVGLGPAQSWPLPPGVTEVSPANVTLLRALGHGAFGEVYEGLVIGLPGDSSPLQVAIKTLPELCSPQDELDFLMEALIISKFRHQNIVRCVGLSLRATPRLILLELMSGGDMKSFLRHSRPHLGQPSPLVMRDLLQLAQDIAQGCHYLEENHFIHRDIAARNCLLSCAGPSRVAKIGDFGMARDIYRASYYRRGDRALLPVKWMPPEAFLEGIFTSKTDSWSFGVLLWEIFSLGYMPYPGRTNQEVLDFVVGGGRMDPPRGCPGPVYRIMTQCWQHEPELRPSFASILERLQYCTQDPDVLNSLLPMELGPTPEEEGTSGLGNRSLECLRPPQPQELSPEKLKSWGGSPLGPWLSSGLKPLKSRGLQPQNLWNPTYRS

A word on the inhibition: it is the relative decrease from the control value, in per cent. For `Fc1ccc(-c2ncn(C3CCNCC3)c2-c2ccnc(Oc3cccc(C(F)(F)F)c3)n2)cc1`, the inhibition was -6.01% in assay [1]; 3.83% in assay [2]; 4.58% in assay [3]; 4.19% in [4]; 5.18% in assay [5]; -4.5% in assay [6]. Further, the inhibition in assay [7] was -3.93%; in assay [8], 4.54%; in [9], 7.84%; in assay [10], 4.75%.
For the compound `O=C1NC(=O)C(c2ccccc2)=C1Nc1ccccc1`, the inhibition in [1] is 14.9%; in assay [2], 6.41%; in assay [3], 8.4%; in assay [4] it was 4.94%; in [5], 8.44%; in [6], -0.46%. In addition, the inhibition turned out to be 2.76% in [7], 1.49% in assay [8], 5.45% in [9] and 6.85% in [10].
Regarding `O=C1NC(=O)C(c2cccc([N+](=O)[O-])c2)=C1Nc1cc(Cl)c(O)c(Cl)c1`, the inhibition in assay [1] is -0.5%; in assay [2], 1.61%; in assay [3], 2.18%; in assay [4] it was 0.69%; in assay [5], -0.25%; in [6] it was 1.46%. Moreover, the inhibition in [7] came out at 1.1%; in assay [8], 1.1%; in [9], 3.48%; in assay [10], 1.42%.
Take `Cc1cccc(Oc2nccc(-c3c(-c4ccc(F)cc4)ncn3C3CCNCC3)n2)c1C`: the inhibition is 4.89% in assay [1]; 4.08% in assay [2]; 5.38% in [3]; 2.27% in assay [4]; 4.27% in [5]; -2.79% in assay [6]. The inhibition in assay [7] is -0.3%; in [8], 3.51%; in assay [9], 4.76%; in assay [10], 3.98%.
With `O=C(O)c1ccc(Oc2nccc(-c3c(-c4ccc(F)cc4)ncn3C3CCNCC3)n2)cc1`, the inhibition in [1] was 5.35%; in assay [2] it was 2.94%; in assay [3], 2.74%; in assay [4] it was 3.36%; in [5], 4.28%; in [6] it was -4.07%. Also, the inhibition was -2.65% in [7], 5.34% in assay [8], 1.84% in assay [9] and 6.24% in assay [10].
Turning to `NC(=O)CCc1ccccc1Oc1nccc(-c2c(-c3ccc(F)cc3)ncn2C2CCNCC2)n1`, the inhibition in [1] was -3.37%; in assay [2], 0.72%; in assay [3], 0.53%; in assay [4], -2.87%; in assay [5], -0.4%; in [6], -0.71%. In addition, the inhibition is 2.85% in assay [7], -0.74% in assay [8], 0.88% in assay [9] and 1.49% in assay [10].
With `CC(C)(C)c1ccc(Oc2nccc(-c3c(-c4ccc(F)cc4)ncn3C3CCNCC3)n2)cc1`, the inhibition in assay [2] was 0.68%; in [3], 5.75%; in [4] it was 0.89%; in [5], 4.17%; in assay [6], 1.09%; in [7], 0.05%. Further, the inhibition in [8] came out at 1.62%; in [9], 4.11%; in [10] it was 4.61%.
On to `CS(=O)(=O)c1ccc(Oc2nccc(-c3c(-c4ccc(F)cc4)ncn3C3CCNCC3)n2)cc1`, for which the inhibition in assay [1] is 4.75%; in assay [2], 1.38%; in assay [3], 1.44%; in assay [4] it was 2.19%; in assay [5], 4.47%; in assay [6], -1%. Further, the inhibition is -2.6% in assay [7], 2.2% in [8], 3.48% in assay [9] and 5.06% in assay [10].
For the compound `Fc1ccc(-c2ncn(C3CCNCC3)c2-c2ccnc(Oc3ccc(Cl)cc3)n2)cc1`, the inhibition in [1] was 2.73%; in [2], 4.23%; in [3], -1.86%; in assay [4], 0.72%; in [5], 1.44%; in assay [6] it was 0.75%. Moreover, the inhibition worked out at 2.03% in assay [7], 0.42% in assay [8], 2.31% in [9] and 0.61% in [10].
For the compound `COc1ccccc1C1=C(Nc2ccccc2)C(=O)NC1=O`, the inhibition in [1] turned out to be 4.82%; in assay [2] it was 6.65%; in [3], 1.47%; in assay [4], 3.18%; in assay [5], 3.39%; in [6], 0.2%. The inhibition in assay [7] was 5.79%; in assay [8] it was 3.08%; in assay [9], 22.8%; in assay [10] it was 3.08%.
For the compound `O=C1NC(=O)C(c2ccccc2Cl)=C1Nc1cc(Cl)c(O)c(Cl)c1`, the inhibition amounted to 11.8% in assay [1]; 2.2% in assay [2]; 5.52% in [3]; 2.33% in assay [4]; 11.9% in [5]; 1.29% in assay [6]. In addition, the inhibition in assay [7] worked out at 8.54%; in [8] it was 2.12%; in assay [9], 0.12%; in assay [10], 2.95%.
For `Fc1ccc(Oc2nccc(-c3c(-c4ccc(F)cc4)ncn3C3CCNCC3)n2)cc1`, the inhibition is 6.28% in assay [1]; 3.81% in assay [2]; 5.89% in [3]; 0.95% in assay [4]; 1.38% in assay [5]; -1.79% in [6]. The inhibition is 1.69% in [7], -0.24% in assay [8], -3.53% in assay [9] and 5.08% in assay [10].
With `COc1ccccc1Oc1nccc(-c2c(-c3ccc(F)cc3)ncn2C2CCNCC2)n1`, the inhibition in assay [1] is 8.95%; in assay [2] it was 3.97%; in [3], 5.5%; in assay [4], 2.55%; in assay [5], 2.99%; in assay [6], -1.68%. For the same compound, the inhibition worked out at 1.1% in assay [7], 3.56% in assay [8], 5.62% in [9] and 5.36% in assay [10].
For `Fc1ccc(-c2ncn(C3CCNCC3)c2-c2ccnc(Oc3cccc(F)c3)n2)cc1`, the inhibition was 7.23% in assay [1]; 5.53% in assay [2]; 3.91% in [3]; 1.74% in [4]; 4.41% in assay [5]; -2.13% in assay [6]. Further, the inhibition is -2.43% in assay [7], 5.25% in assay [8], 11.3% in assay [9] and 5.94% in assay [10].

The values above are taken from ChEMBL document CHEMBL1961873, “Compounds: GSK PKIS; Assays: Nanosyn kinase panel” (2012).
